# Source: the supplement of paper PMC8728848
# The other results are listed elsewhere or left out.
# B1: GSL-I-B4 (Griffonia simplicifolia) (protein)
# chain: NFWSDVEDSIIFQGDANTTAGTLQLCKTNQYGTPLQWSAGRALYSDPVQLWDNKTESVASFYTEFTFFLKITGNGPADGLAFFLAPPDSDVKDAGEYLGLFNKSTATQPSKNQVVAVEFDTWTNPNFPEPSYRHIGINVNSIVSVATKRWEDSDIFSGKIATARISYDGSAEILTVVLSYPDGSDYILSHSVDMRQNLPESVRVGISASTGNNQFLTVYILSWRFSSNLQSTSVKAAMEPEITRTVV
# How the values were obtained:
# [1] = molecular target: Neu5Gc(a2-8)Neu5Gc(a2-6)Gal(b1-4)GlcNAc; experiment: glycan array binding signal (z-score within array); higher = stronger binding; conditions: glycan notation: IUPAC condensed, linker removed
# Procedure, shortened: (§1)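 The binding signal is a Z-score computed within each array and averaged over linkers. Arrays of the same protein sequence at different concentrations or buffers were also averaged together. Data originate from 3228 arrays in the Consortium for Functional Glycomics database, kept only where the protein sequence was available.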
# [2] = molecular target: Neu5Gc(b2-6)Gal(b1-4)GlcNAc; experiment: as above; conditions: glycan notation: IUPAC condensed, linker removed
# Procedure, shortened: as §1
binder,measurement,setting,value
B1,glycan array binding signal (z-score),[1],-0.141
same,glycan array binding signal (z-score),[2],-0.151
